From PMC8572878 (Biotechnology Reports, 2021)

Biological target: wild type IL-17RA (UniProt Q96F46 33-317)
Test: SPR

- Kd: 1.4 nM
B1: Interleukin-17A (IL-17A), commercial recombinant (ligand)
chain: not shown
